Reference: ChEMBL document CHEMBL4888484, “Replenishing the malaria drug discovery pipeline: Screening and hit evaluation of the MMV Hit Generation Library 1 (HGL1) against asexual blood stage Plasmodium falciparum ,using a nano luciferase reporter read-out” (2022)
In all, about 150,000 compounds went through this assay and about 540 (0.36%) showed an effect of 50% or more. The list shows a part of the results.

System: Plasmodium falciparum
Assay: Primary screen in NF54 nanoGlo assay, in single point, at 2uM, 72h; a lower Z score goes with more inhibition
Assay type: functional, Erythrocyte
Conditions: timepoint 72 hour

Compound | % Inhibition [%] | Z score
Cc1c(CN[C@H]2CCCCNC2=O)cc(C#N)n1C | -8 | 1.12
CC[C@H](C)C(=O)NS(=O)(=O)N1CCN(Cc2ccccc2)CC1 | 3 | -0.34
Cc1cccc(-c2ncc(C(=O)N3CCC(C)CC3)c(N(C)C3CCCCC3)n2)c1 | -12 | 2.37
COc1ccc2c(CN3CCOC[C@@H](CN(C)C)C3)cn(C)c2c1 | -2 | 0.27
Cc1csc(C2(NC(=O)Nc3ccnn3[C@@H](C)CC(C)C)CCC2)n1 | -6 | 0.72
CCC[C@H](C)N(C)C(=O)CCN(Cc1ccccc1)C(C)=O | -7 | 0.91
CCN(CCn1cccn1)S(=O)(=O)c1ccc(OCC(N)=O)cc1 | -2 | 0.31
CN(C)C(=O)c1ccc(OC2CCOCC2)nc1 | -3 | 0.48
Cc1nc([C@@H]2CCC[C@H](N)C2)n(C2Cc3ccccc3C2)n1 | 6 | -0.85
CCN(CCn1cccn1)C[C@]1(c2ccc(F)cc2)CCOC1 | -5 | 0.69
Cn1nnc(C(=O)NC2CC[C@H]3CN(Cc4ccccc4)C[C@H]3C2)n1 (stereo partly specified) | -5 | 0.86
CCOc1cc(C#N)ccc1OCC(=O)Nc1cc(C2CCCC2)nn1-c1ccccc1 | -3 | 0.43
Cc1ccc(C(=O)N2CC[C@@H]3CN(Cc4ccccc4)[C@@H]3C2)cc1 | -10 | 1.2
Cc1cc(C(=O)N2CC(F)(F)C[C@H]2COc2cccnc2)n(C)n1 | -4 | 0.65
Cc1c(CC(=O)N2CC[C@@H](O)C2)c2c(n1CCCc1ccccc1)CCCC2=O | -12 | 2.11
Cc1ncc(C(=O)NC2CCCC2)c(=O)n1CC(=O)Nc1ccc(F)cc1Cl | -11 | 1.65
CCCc1nnc(N2CC(Oc3cccc(Cl)c3)C2)o1 | -17 | 3.21
O=C(c1cc(-c2cccc(F)c2)ns1)N1CCN(c2ccccc2)CC1 | -13 | 1.76
CC1=C(CCN2CCO[C@H](C(=O)O)C2)C(C)(C)CCC1 | -5 | 0.96
Cc1nc(C(C)C)sc1[C@H](C)NCc1cnn(C)c1C | -10 | 1.46
Cn1ccnc1CN(CCO)C(=O)[C@@H]1CC=CCC1 | -8 | 1.09
Cc1cc2c(cc(C(=O)NCc3ccccc3)n2[C@@H](C)c2ccccc2)s1 | 7 | -0.92

Compound | % Inhibition [%] | Z score
COc1ccc(NC(=O)Cn2nc3n(c2=O)CCCC3)cc1Cl | -4 | 0.61
C[C@H](NCc1ccccc1CN1CCOCC1)C(=O)Nc1cccc2ccccc12 | -7 | 1.29
CN(C)c1ccc(NC(=O)c2ccoc2)cn1 | 27 | -3.09
COc1ccc(-c2ccc(N3CCCN(C(=O)CN(CCN4CCOCC4)C(=O)c4cccc(F)c4)CC3)nn2)cc1 | -24 | 2.1
O=C(N[C@@H]1COC2(CCCCC2)C1)c1nc2ccc(Cl)cn2c1F | -8 | 1.06
NC(=O)C1CCC(CNC(=O)C2CC2c2ccco2)O1 (stereo unspecified) | 3 | -0.38
CCN1c2ccc(C)cc2C(=O)NC12CCN(C(=O)c1cccc(OC)c1)CC2 | -18 | 2.33
Cc1ccc(C(=O)NC2(c3ccccc3F)COC2)o1 | 2 | -0.38
C[C@@H](c1nc2ccccc2c(=O)[nH]1)N1CCc2c(nc(C3CC3)n2C)C1 | -14 | 2.58
O=C(CNC(=O)c1cnccn1)NCCc1c[nH]c2ccccc12 | -5 | 0.78
CC(C)Cn1ccc(C(=O)Nc2nccnc2C(C)C)n1 | 5 | -0.85
CC(=O)Nc1ccc(C(=O)N2CCC3(CC2)NC(c2ccc(C)cc2)=NO3)cc1 | -4 | 0.47
COc1ccc(NC(=O)c2cc(-c3cccc4ccccc34)nc3ccccc23)c(OC)c1 | -11 | 1.14
Cc1cc(CN(C)C[C@H]2CCC(=O)O2)ccn1 | -4 | 0.79
Cc1cc2c(c(-c3ccc(Cl)cc3)c1)O[C@@H](CNC(=O)Cc1csc(C)n1)C2 | -14 | 1.58
CC[C@H](C)n1ncc(C(=O)Nc2n[nH]c(Cc3cccc(F)c3)n2)c1C1CC1 | -5 | 0.5
C[C@H]1CN(C(=O)c2cc(C#N)cn2C)CCN1C(=O)OC(C)(C)C | 7 | -0.93
CC(C)(CNC(=O)N1CCCC1)N1CCOCC1 | -8 | 1.13
O=C(Nc1ccc(C2OC(=O)N(Cc3ccccc3)C2C(=O)NCCN2CCOCC2)cc1)c1ccco1 (stereo unspecified) | -9 | 1.09
Cc1cccc(NC(=O)Cn2cncc(-c3nc(-c4ccccc4)cs3)c2=O)c1C | -4 | 0.6
OCCO[C@H]1CCOC[C@H]1Nc1ncc(F)c(N2CCOCC2)n1 | -11 | 2.26
